Laboratory results: PubChem BioAssay AID651711 (Broad Institute, 2012)
Hit rate of the full screen: of about 350,000 compounds, about 180 (0.051%) were called active. The inconclusive results got no clear call from the source; some entries with a clear call stand among them for comparison.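 How the source made its calls: active means mean replicate inhibition above about 25%, with every replicate also reaching it (limit read from the data, passing the limit was not always enough); inconclusive means only one of those two criteria met; inactive means neither criterion met.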

These compounds were tested against Protein disulfide-isomerase A6 (Homo sapiens) (UniProt Q15084) (assay: inhibitors of ERp5-driven insulin aggregation, primary screen, biochemical, turbidity, absorbance 650 nm, single point (AID 651711)). Conditions: 90 min, at 9.99 µM, hits give high values.
UniProt Q15084, sequence (Q15084 whole entry, looked up): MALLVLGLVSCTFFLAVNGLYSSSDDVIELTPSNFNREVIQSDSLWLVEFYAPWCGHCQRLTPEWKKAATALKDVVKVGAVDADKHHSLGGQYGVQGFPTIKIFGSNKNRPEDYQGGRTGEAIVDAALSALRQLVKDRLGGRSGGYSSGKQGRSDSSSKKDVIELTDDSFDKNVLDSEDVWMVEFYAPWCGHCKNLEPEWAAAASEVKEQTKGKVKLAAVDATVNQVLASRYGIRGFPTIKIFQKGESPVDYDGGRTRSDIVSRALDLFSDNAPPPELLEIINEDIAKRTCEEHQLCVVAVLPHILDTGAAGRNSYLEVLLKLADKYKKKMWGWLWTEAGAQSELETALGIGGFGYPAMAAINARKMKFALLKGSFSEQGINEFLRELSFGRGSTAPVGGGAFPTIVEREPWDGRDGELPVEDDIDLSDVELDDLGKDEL

**Q.** With CCC(=O)c1ccc(OCC(=O)Nc2nc(C)cs2)cc1 as the compound, how does the inhibition read?
**A.** Its inhibition is inactive: -1.05%.

**Q.** With Cc1cc(OCC(O)CN2C(C)CCCC2C)ccc1C(C)C (configuration not stated) as the compound, how does the inhibition read?
**A.** Its inhibition is inconclusive: 44.3%.

**Q.** O=C(CCC(=O)c1cccs1)NCC(c1ccc(F)cc1)N1CCOCC1 (configuration not stated) was tested. Which inhibition did it give?
**A.** Its inhibition is inactive: 5.1%.

**Q.** Which inhibition does the source give for O=C(CN1C(=O)NC2(CCCCC2)C1=O)NCCC1=CCCCC1 here?
**A.** The inhibition was inconclusive: 45.3%.

**Q.** O=C(NC1CCC1)[C@@H]1[C@@H](CO)[C@@H]2Cn3c(ccc(-c4ccccc4)c3=O)[C@H]1N2CC1CC1 was tested. Which inhibition did it give?
**A.** Its inhibition is inconclusive: 26.6%.

**Q.** For O=C(O)/C=C/C(=O)Nc1ccc2c(c1)NC(=O)CO2, which inhibition is on record?
**A.** Its inhibition is inconclusive: 45.7%.

**Q.** COc1ccc(OC)c(-c2nnc3n2N=C(c2ccc(OC)c(OC4CCOC4)c2)CS3)c1 (configuration not stated) was tested. Which inhibition did it give?
**A.** The inhibition was inactive: 0.39%.

**Q.** For CCN(CC)S(=O)(=O)c1cccc(NC(=O)c2ccccc2Br)c1, which inhibition is on record?
**A.** The inhibition was inconclusive: 48.5%.

**Q.** With COc1ccc(Cn2c(=O)oc3ccc(C)cc32)cc1 as the compound, how does the inhibition read?
**A.** The inhibition was inconclusive: 26.4%.

**Q.** COc1ccc(S(=O)(=O)N(C)C[C@@H]2Oc3ccc(NC(=O)NC4CCCCC4)cc3CC(=O)N([C@H](C)CO)C[C@H]2C)cc1 was tested. Which inhibition did it give?
**A.** The inhibition was inactive: 0.204%.

**Q.** Which inhibition does the source give for COc1ccc2c3c([nH]c2c1)[C@H](CO)N(C(=O)NC(C)C)CC31CN(C(=O)C2CCCC2)C1 here?
**A.** Its inhibition is active: 66.9%.

**Q.** With CN1C(=O)C(O)(CC(=O)/C=C\c2ccc3c(c2)OCO3)c2ccccc21 (configuration not stated) as the compound, how does the inhibition read?
**A.** The inhibition was inconclusive: 38.6%.

**Q.** With CCOC(=O)N1CCN(C(=S)Nc2ccc3nc(N4CCN(CC)CC4)cc(C)c3c2)CC1 as the compound, how does the inhibition read?
**A.** The inhibition was inactive: -5.19%.

**Q.** For O=C(Nc1cc(Br)c(O)c(Br)c1)c1cccc(NC(=O)c2ccco2)c1, which inhibition is on record?
**A.** Its inhibition is inconclusive: 56.8%.

**Q.** For Cc1cc(C)c(C)c(S(=O)(=O)NCc2ccncc2)c1C, which inhibition is on record?
**A.** Its inhibition is inactive: 2.9%.

**Q.** For CCCNC(=O)N(C)C[C@H]1Oc2ncc(C#CC3CCCCC3)cc2C(=O)N([C@@H](C)CO)C[C@@H]1C, which inhibition is on record?
**A.** Its inhibition is inactive: -2.4%.

**Q.** Which inhibition does the source give for COc1ccc(S(=O)(=O)N(C)C[C@@H]2Oc3ccc(NC(=O)c4ccncc4)cc3C(=O)N([C@H](C)CO)C[C@@H]2C)cc1 here?
**A.** Its inhibition is active: 63.9%.

**Q.** How did the inhibition turn out when CC1CCN(Cc2c(C(=O)N/N=C/c3ccccc3O)nnn2-c2nonc2N)CC1 was run?
**A.** The inhibition was inactive: 0.692%.

**Q.** N#C/C(=C(/O)CSc1ncn[nH]1)c1nc2ccccc2[nH]1 was tested. Which inhibition did it give?
**A.** Its inhibition is inactive: 0.153%.

**Q.** Which inhibition does the source give for C[C@H](CO)N1C[C@H](C)[C@@H](CN(C)S(=O)(=O)c2ccc(F)cc2)Oc2c(NC(=O)c3cnccn3)cccc2C1=O here?
**A.** The inhibition was inactive: -1.21%.

**Q.** COc1ccc(C(=O)NC(=S)Nc2ccccc2N2CCOCC2)cc1Br was tested. Which inhibition did it give?
**A.** The inhibition was inconclusive: 42.9%.

**Q.** Which inhibition does the source give for Cc1ccc(C)c(NC(=O)CSc2nc3ccccc3nc2N2CCOCC2)c1 here?
**A.** The inhibition was inactive: 3.44%.
